Measured values from article PMC4336329 (PLoS ONE, 2015).
The campaign covered roughly 310,000 compounds. About 2,200 (0.71%) showed an effect of 50% or more. Effects have a minus sign here. The list shows a part of the results.

Each compound was assayed against human ether-à-go-go-related gene (hERG) potassium channel (human, UniProt Q12809) (assay: primary screen, population patch clamp on CHO cells stably expressing hERG).
human ether-à-go-go-related gene (hERG) potassium channel, sequence (Q12809 whole entry, looked up): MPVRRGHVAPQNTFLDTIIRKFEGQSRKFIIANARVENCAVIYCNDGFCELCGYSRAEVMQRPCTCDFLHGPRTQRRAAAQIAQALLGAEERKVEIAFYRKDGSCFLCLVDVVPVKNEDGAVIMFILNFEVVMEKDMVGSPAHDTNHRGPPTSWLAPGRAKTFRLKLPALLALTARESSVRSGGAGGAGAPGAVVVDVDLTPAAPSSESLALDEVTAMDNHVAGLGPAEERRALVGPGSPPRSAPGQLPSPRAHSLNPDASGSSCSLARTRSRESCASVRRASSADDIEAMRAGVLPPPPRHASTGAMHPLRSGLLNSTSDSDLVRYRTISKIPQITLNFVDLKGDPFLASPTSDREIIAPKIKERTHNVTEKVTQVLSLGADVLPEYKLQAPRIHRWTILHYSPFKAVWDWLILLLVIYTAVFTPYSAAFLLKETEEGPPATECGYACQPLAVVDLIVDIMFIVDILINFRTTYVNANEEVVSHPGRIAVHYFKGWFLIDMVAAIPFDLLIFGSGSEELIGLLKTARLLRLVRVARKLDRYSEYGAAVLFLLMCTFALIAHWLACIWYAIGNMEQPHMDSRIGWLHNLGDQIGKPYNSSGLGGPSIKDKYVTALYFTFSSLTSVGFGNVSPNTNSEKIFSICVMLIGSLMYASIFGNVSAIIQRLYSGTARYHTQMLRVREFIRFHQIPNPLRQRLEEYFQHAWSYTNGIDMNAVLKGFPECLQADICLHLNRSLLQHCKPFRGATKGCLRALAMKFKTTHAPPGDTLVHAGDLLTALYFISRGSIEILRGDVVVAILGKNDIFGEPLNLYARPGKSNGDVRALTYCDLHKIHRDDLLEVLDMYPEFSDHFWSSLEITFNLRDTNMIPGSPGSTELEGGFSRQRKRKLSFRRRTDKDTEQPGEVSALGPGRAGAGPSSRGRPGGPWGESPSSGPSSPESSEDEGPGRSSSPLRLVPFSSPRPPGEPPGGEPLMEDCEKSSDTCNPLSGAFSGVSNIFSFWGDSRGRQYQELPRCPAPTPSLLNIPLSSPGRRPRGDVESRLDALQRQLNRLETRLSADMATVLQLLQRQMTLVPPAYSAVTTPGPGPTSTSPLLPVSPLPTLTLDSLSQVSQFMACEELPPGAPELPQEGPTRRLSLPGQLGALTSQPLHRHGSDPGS

Row | SMILES | hERG current change (%, negative = inhibition) at 1uM [%]
1 | O=C(NC1CCCCC1)C(c1cccnc1)N(C(=O)CCl)c1ccc(F)cc1 (centres unmarked) | 12.5
2 | O=C1CSC(c2cccc([N+](=O)[O-])c2)N1c1c(F)cccc1F (centres unmarked) | 4.55
3 | O=C(NCCC(=O)N(CCc1ccccc1)Cc1ccccc1)c1ccccc1Cl | -11.1
4 | Cc1cc([N+](=O)[O-])nn1CC(=O)N/N=C/c1ccccc1Br | 12.9
5 | CCS(=O)(=O)N1Cc2ccccc2CC1C(=O)N(C)Cc1ccc(OC)cc1OC (centres unmarked) | 8.41
6 | COC(=O)c1ccccc1NC(=O)CSc1nnc(COc2cccc(OC)c2)n1C | -6.49
7 | Cc1ccc2[nH]cc(CCNC(=O)c3cccnc3)c2c1 | -16.7
8 | COc1cc2c(cc1OC)C(C)N(C(=O)c1sc(-c3cnccn3)nc1C)CC2 (centres unmarked) | 7.65
9 | O=C(c1cccnc1)N1CCN(C/C=C/c2ccccc2)CC1 | 9.95
10 | CC(Oc1ccc2c3c(c(=O)oc2c1)CCCC3)C(=O)NCCN1CCOCC1 (centres unmarked) | 48.4
11 | c1cnc2c(OCc3nc4ccccc4[nH]3)cccc2c1 | 11.3
12 | CC1Sc2ccc(S(=O)(=O)CCC(=O)Nc3cc(F)ccc3F)cc2NC1=O (centres unmarked) | 7.87
13 | COc1ccc(-c2cc(C(=O)Nc3nc4c(C)cccc4s3)c3ccccc3n2)cc1OC | -9.29
14 | COc1ccccc1CCNC(=O)CCn1c(=O)c2cccn2c2ccc(F)cc21 | 11.8
15 | CNC(=O)COC(=O)c1ccc(Cl)c(S(=O)(=O)N2CCCC2)c1 | 7.72
16 | Cc1cccc(C)c1OCC(O)CNS(=O)(=O)c1ccccc1C(=O)N1CCCCC1 (centres unmarked) | 0.147
17 | Nc1nnc(SCc2nnc(-c3ccccc3)o2)s1 | 0.773
18 | Cc1ccc(S(=O)(=O)CCC(=O)c2cccc([N+](=O)[O-])c2)cc1 | 2.25
19 | COc1ccccc1OCCNc1cc(N2CCCCC2)ccc1[N+](=O)[O-] | 14.6
20 | COc1ccc(C)cc1NC(=O)CSc1nc(=O)n(CCCN2CCOCC2)c2c1CCCC2 | -3.06
21 | CC(=O)c1ccc(S(=O)(=O)N(C)CC(=O)N2CCCCCC2)cc1 | 12.7
22 | Cc1ccc(C(=O)CCC(=O)Nc2ccccc2F)cc1 | 12.9

Row | SMILES | hERG current change (%, negative = inhibition) at 1uM [%]
23 | Cn1c(=O)oc2cc(S(=O)(=O)N3CCC(C(=O)N4CCN(c5ccc(F)cc5)CC4)CC3)ccc21 | 1.78
24 | Cc1ccc(C2=NN(C(=O)c3cccs3)C(c3ccccc3O)C2)cc1 (centres unmarked) | 15.4
25 | CC(Sc1sc(=S)sc1SC(C)C(=O)O)C(=O)O (centres unmarked) | -4.45
26 | CC[C@H](C)[C@@H](CNC)NC[C@@H](Cc1ccc(O)cc1)NCC(C)(C)C | 9.94
27 | Cc1nc(C)c(-c2csc(NCc3ccco3)n2)s1 | 3.94
28 | COC(=O)c1ccc(N2CCOCC2)c(NC(=O)c2cccs2)c1 | 0.514
29 | CC(=O)N1CCOc2ccc(S(=O)(=O)Nc3ncccc3C)cc21 | 19
30 | O=c1[nH]c2cccnc2n1-c1ccc([N+](=O)[O-])cc1 | 4.31
31 | S=C(NCCCNC(=S)Nc1ccccc1)Nc1ccccc1 | 9.91
32 | CCOc1ccccc1C(=O)N(CN1CCCC1=O)c1ccc(C)c(Cl)c1 | 8.68
33 | Cc1noc(C)c1COC(=O)c1cccc(S(=O)(=O)N2c3ccccc3CC2C)c1 (centres unmarked) | 10.5
34 | CCN(CC)c1ccc(/C=N/NC(=S)NC)c(O)c1 | 4.81
35 | CC(C)OC(=O)c1ccc(COC(=O)c2cccc(-c3nnc(-c4ccccc4)o3)c2)cc1 | -0.142
36 | CC1=C(C(=O)Nc2ccccn2)C(c2ccccc2)n2ncnc2N1 (centres unmarked) | 17.3
37 | Cc1ccc(-c2c3c([nH]c(=S)c2C#N)CCCC3)o1 | 2.74
38 | Nc1ccc2nc(COc3ccccc3)[nH]c2c1 | 11.9
39 | CCOC(=O)Nc1nnc(-c2ccccc2OC)s1 | 1.2
40 | CSc1nc(-c2ccccc2)nc(N2CCN(C)CC2)c1C(C)=O | 2.05
41 | O=C(c1ccco1)N1CCN(C(=O)c2oc(=O)c3ccccc3c2-c2ccccc2)CC1 | -26.4
42 | COc1ccccc1NC(=O)CN(Cc1ccco1)C(=O)c1ccc(-n2nc(C)cc2C)cc1 | -18.9
43 | CCOC(=O)C1(CCOc2ccccc2)CCN(Cc2ccc(OC)cc2)CC1 | -77.4
44 | CCCCN(C(=O)CCNC(=O)NC12CC3CC(CC(C3)C1)C2)c1c(N)n(CCC)c(=O)[nH]c1=O | 10.5
